Measurements as given in the supplement of paper PMC4466236.
In all, about 33,000 sequences were measured (“E-score (dimensionless, -0.5 to 0.5)”: median about -0.058, highest 2% from about 0.35 on). The list shows a part of the results.

The sequences below were run on MvaT (assay: PBM 8-mer E-score (mean of HK and ME arrays) (E-score (dimensionless, -0.5 to 0.5)); higher = stronger relative binding preference; most listed sequences are background and not binding sites).
Method: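 Protein binding microarray: GST-tagged full-length MvaT (P. aeruginosa PAO1) bound to two universal double-stranded 60-mer arrays (ME and HK), each with a constant 25-mer primer and a variable 35-mer region covering all 8-mers. The 8-mer E-score (rank-based, range -0.5 to 0.5, >0.45 = specific binding) is the mean of the two arrays.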

Sequence	PBM 8-mer E-score
GAATCCGC	-0.0989
ACGTGAGC	-0.229
AGACCGTG	-0.0731
GCCTACAC	-0.146
ATTCGTGG	-0.00515
CTGCGGGA	-0.21
AGCTCGCC	-0.22
GCATCACA	-0.109
GTCTTGCA	0.0636
AATCTACT	0.0553
GCATCGAA	-0.0501
ACGGAAAG	-0.0394
GACGCTAC	-0.21
GATGCTGA	-0.192
CGGACGAG	-0.236
AATGAATA	0.223
GTACCGCA	-0.0077
CCAACACG	-0.181
GCCTGTCC	-0.241
CTTACCAA	0.104
CTATACCC	-0.012
TGTCACAA	0.0903
ACTAACCT	-0.0268
ATGAAGCC	-0.191
GTGATATA	0.247

Sequence	PBM 8-mer E-score
CACCTAGC	-0.227
ACTGAGTC	-0.236
TCTTCACA	-0.00147
CGCACAAC	0.0246
ATCTCCGA	-0.183
ATCCCGGG	-0.241
CCGAGTAG	-0.242
CAGCTGAA	-0.116
GGCCGCGA	-0.196
AGGAATTG	0.0728
ACAACAGT	0.00557
AACGGCAT	0.0341
CAGATGAC	-0.158
GACTTACC	-0.0439
CTCAGCGC	-0.238
GGGGGGTA	-0.254
AACAATTG	0.217
ACTCAAAC	0.0571
GGCCCCCA	-0.339
CTACTAGC	-0.248
ACGACCCC	-0.289
CAGCCTCC	-0.315
ATGTTACG	0.0562
ACTCGCAA	0.0418
CATACATG	0.0601

Sequence	PBM 8-mer E-score
GGGCGCGA	-0.204
CTCCAAGC	-0.235
AGAGGAAG	-0.145
GGCCTCAA	-0.166
AGCCCCGG	-0.303
AAATCACG	0.0934
CCCTCAGC	-0.262
CCCGCGGC	-0.147
AAACCTGG	-0.0774
CACGAGCA	-0.153
GATCAACA	-0.0821
CGTGAGAC	-0.18
AATCTCGG	0.0949
TCCGCAGA	-0.0767
ATCCGCGC	-0.1
CTGCTCCC	-0.257
TCCTTAAA	-0.0192
AGTACCCA	-0.0393
CACCCTCA	-0.0206
AAAAGCTA	0.00235
ATAAAGTA	0.326
CGGGGCTA	-0.151
AAGTCTTG	0.0494
CTTTACTC	-0.16
GGGTTTTA	0.135

Sequence	PBM 8-mer E-score
ACGCCCGG	-0.203
CCATTAAG	0.203
AAAACATT	0.225
CGGTAGTC	-0.0816
TCCCACAA	0.0216
GCAATGAC	-0.168
AGGATAAT	0.353
ATGCAAGA	0.0319
GAAGTCTA	-0.00413
ACCAGGCG	-0.226
TGTGCGAA	0.132
AACATCTT	0.247
AGCATCGA	-0.0945
GACGATCA	-0.181
ACGTCGCG	-0.158
GTCATAAA	0.133
AAACACGC	0.109
CAAGTAGG	0.045
GACCTCTA	-0.233
CAACTCCA	-0.0538
AATTGGAT	0.157
GCTTTGGA	-0.166
AACATCGC	0.0349
CGGGACTC	-0.186
ATCCCTGG	-0.126

Sequence	PBM 8-mer E-score
ATTAAAAT	0.29
CTTATTCA	0.194
TAATAAGA	0.375
AGAAATAT	0.356
CGTCGAGA	-0.0967
AATAACTA	0.348
GACGTGGC	-0.232
CGGAGTAA	-0.116
GGCGAGAC	-0.166
ATTTTGTC	0.251
ACGCTAAA	0.127
GGCCATCA	-0.162
ACCTTCAT	-0.0739
GATCTGAA	-0.0827
CAGTCGAA	-0.197
AAGTTATT	0.415
GATGTCTA	-0.00553
AATGGAAT	0.0822
CCTTTACG	-0.0732
CTGAAGCC	-0.261
ATAAAGTG	0.228
CCTAGGAA	-0.193
CAATGTGG	-0.0165
ACTAGATA	0.14
ATAGTTTC	0.275

Sequence	PBM 8-mer E-score
CTGACTCA	-0.167
CAGTACGC	-0.196
CGGTTATA	0.224
GAAGCGTA	-0.0392
GCACGGGA	-0.252
GACCTTTA	0.0184
CTGCCCGC	-0.327
ACTGAGGC	-0.0606
AATCTATC	0.193
AACTGGAT	0.113
CGTCGGGC	-0.21
GAACTAAC	0.241
CTTATCCC	-0.0794
CAGTGCCC	-0.263
AATACTCC	0.231
GGTCAGAC	-0.0755
ATCCATCA	0.0119
CCTTTCCA	-0.0831
GCCTCTAA	-0.00163
CGATAACC	-0.0801
CTTACGAA	0.184
AGGAACAC	-0.0883
ATGCGACG	-0.0988
AGTCATTC	0.0718
CACCTAGA	-0.0101

Sequence	PBM 8-mer E-score
TACTCGGA	0.0503
AACCTACA	0.00823
GAGGGCAA	-0.147
TACTGGCA	0.0463
ACAAGATC	0.0189
AAGAGGAT	0.0394
AAAATTGT	0.269
CTATGCAG	-0.146
GAGCAGCC	-0.309
GTATGTCA	-0.0803
TCTAAACA	0.092
CCTGCTAA	-0.131
GCGCACCA	-0.225
AGCCGTAA	0.00828
GAAGACCA	-0.15
ATAAGAGC	0.153
GAGTAGAA	0.0154
CGGAAGGC	-0.301
ACGCGGCC	-0.199
ACTCTTCC	-0.212
AACACTGG	0.00512
CGATGGAA	-0.0621
ACAGCCAG	-0.127
ATTCATCA	0.202
CAGCCCGA	-0.207

Sequence	PBM 8-mer E-score
ACGCAGCG	-0.238
AGGTAGTA	0.0553
AGAAAGAC	0.00959
GAAATGCC	-0.0371
GATTTCGA	-0.00454
CAGAACAG	0.0213
ACTAAGAG	0.122
AGTAATAA	0.327
AGCGGTGA	-0.0221
CGCATGCA	-0.0411
AGGCCGTA	-0.217
AGGGGGTC	-0.293
ATGGCCTA	-0.0414
ATTAACGG	0.219
GTTGAGAA	-0.0233
TCCCTGCA	-0.213
GACGTGCC	-0.281
GTACTGCA	0.0657
ACTGCTCT	-0.108
GTGTCAGA	-0.0506
GACCAATC	-0.113
CCCGGGAG	-0.176
GGACGTCC	-0.242
CCCCAACC	-0.338
CTACATCC	-0.0516

Sequence	PBM 8-mer E-score
CATAAGTC	-0.0483
CAGTACAC	-0.0493
AATAGTGC	0.22
AATTCGAG	-0.0357
GCACCGAA	-0.102
CACTCAGC	-0.151
CCATTTAA	0.272
ATCCTTGG	-0.116
AGAAAAAA	0.0527
AAGTTGAG	0.0659
GGATTCGA	-0.0781
AAGACTGT	0.0403
ACTTCTCG	0.0602
AACTCGTC	0.0126
CAGGTCGA	-0.187
ACGAAACC	-0.0729
AATTGCAC	0.178
AGTTCCAA	0.128
GTAAGACA	0.159
TATTTAAA	0.433
AATACCCA	0.323
AAACAAGG	0.0768
GGGACCGA	-0.255
GGTATTAC	0.209
CGTACTGC	-0.058

Sequence	PBM 8-mer E-score
AGTCTAGG	-0.276
CATTGGGG	-0.157
CAGGGTTC	-0.251
ATCCATTC	-0.0391
AAAGCGAA	0.149
AAGTGATG	0.134
AGTGTTGA	0.0937
AGGGGCAA	-0.204
ACTGGCCG	-0.0768
AGGATGTA	0.125
GAAAAATC	-0.104
GACGTTTA	0.00657
CTGTCTAC	-0.108
AACTCACC	-0.00356
ACAATCTC	0.028
ATAGAAGC	-0.00456
CGTAGAAC	-0.165
GTTTGAGA	0.0188
CAGTACCG	-0.0734
TAAGCAAA	0.191
GCAACGGA	-0.0564
CGCGATGC	-0.0492
CAGGACGC	-0.254
TGTGTCAA	0.0614
CAAATATA	0.433

Sequence	PBM 8-mer E-score
CTTCTCCA	-0.0708
CATATCGG	0.0569
AGTTCCCA	-0.0505
ACAGGTGA	-0.0802
AGGGTCCG	-0.229
GCCCGCGA	-0.31
CAGGGGGC	-0.328
AGCGGTAG	-0.00435
CCGCGTTC	-0.22
GACGATGA	-0.129
GTCCTGGA	-0.103
AAAATCGG	0.0418
ACCTGTAT	0.145
CTGTACCC	-0.208
GGTAAAGA	0.0344
AATGAGTA	0.211
GCGGTGCA	-0.0493
ATAGCCAA	-0.0619
ATTAAATG	0.373
AATTTTAA	0.321
GGTTCGCA	-0.166
CTGGCTTA	0.0313
CGTCTGAA	0.102
ACGATTTG	0.0263
CTATTAGC	0.136

Sequence	PBM 8-mer E-score
AAATGCCC	0.0772
ACCTTCCG	-0.174
AACTGGGT	0.0603
CAGGAATA	0.209
GGTCCGTA	-0.118
ACACTCCC	-0.00882
CATTTTCA	0.108
GGAATAAA	0.289
CGGACCTA	-0.271
GGGTCCAA	-0.28
ATCATAAA	0.308
TAAGTACA	0.196
CCAAGTTA	0.196
TTCCGAAA	0.1
ATTTAATC	0.346
AATGGCCT	-0.18
GGATGGAA	-0.0929
ACATCCGG	-0.0494
GCTTGGGA	-0.194
CGGACGCC	-0.245
ATCAGCAG	-0.0789
ACAGCGTC	-0.26
AGGAGCCT	-0.293
CACTGGAG	-0.137
TCCGTGCA	-0.108

Sequence	PBM 8-mer E-score
GTGATGGA	-0.164
AGTACTGG	0.174
ACATCGTA	0.0214
ATTAAAGA	0.264
TCGTTCCA	-0.0799
ATGTTTGC	0.106
ACATACGA	0.101
CGTTCCAC	-0.0562
AGGCCTGG	-0.315
ACACAGCG	-0.0306
TAGTCCAA	0.191
CAAGCCAA	-0.129
GAGTAGCA	-0.169
CTTAATTA	0.454
CAGACTAC	-0.0173
CAACCTTA	0.0197
ATAGACTC	-0.0741
ATACAACG	0.181
ATCATTTC	0.0246
AACACCAA	0.0452
AGTACAAG	0.0783
AAAGGCAC	-0.169
CGCGTCGA	-0.182
ACAGCACG	-0.0895
ACCGAGCG	-0.188

Sequence	PBM 8-mer E-score
CTAAAACC	0.0507
CGGCCTAG	-0.27
ACGTACGT	-0.0402
ACTACTCA	0.0173
CGTCAAGC	-0.0222
GTCCGTGA	-0.136
CGGGGGCC	-0.335
CACTCTGC	-0.113
AGACTGAT	0.00842
GGTCGGTA	-0.249
GTGGACCA	-0.118
AATGTTCA	0.252
CAAGAAGG	-0.269
CTAACCAC	-0.0777
ACTGCTTC	-0.228
GATTGCCC	-0.151
CGTTTGTC	-0.0022
GATGCACC	-0.166
AGGACTAG	-0.106
